# Results published in PMC4326527.
# Amino acid sequences for entries named in this document (tags omitted). A change or cut given only in a name is not applied to a line headed by its entry. Chains listed by the source or under a name are the forms on record and can include a tag or linker.
# USP46 amino-terminal fragment (1–164) in pNLS(SV40)-GFP (P62068, form named): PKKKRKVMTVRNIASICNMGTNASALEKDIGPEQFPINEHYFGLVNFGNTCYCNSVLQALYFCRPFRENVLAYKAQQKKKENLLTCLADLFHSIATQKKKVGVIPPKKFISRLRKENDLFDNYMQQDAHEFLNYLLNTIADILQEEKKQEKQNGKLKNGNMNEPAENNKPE
# USP46 central fragment (165–259) in pNLS(SV40)-GFP (P62068, form named): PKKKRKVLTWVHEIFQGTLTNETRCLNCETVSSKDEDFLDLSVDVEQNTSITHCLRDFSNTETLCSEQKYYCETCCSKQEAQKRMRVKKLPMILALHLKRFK
# USP46 carboxy-terminal fragment (243–366) in pNLS(SV40)-GFP (P62068, form named): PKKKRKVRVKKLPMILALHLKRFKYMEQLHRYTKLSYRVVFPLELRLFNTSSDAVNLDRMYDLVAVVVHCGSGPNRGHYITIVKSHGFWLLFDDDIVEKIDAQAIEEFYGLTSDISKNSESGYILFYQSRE
# full length USP46 in pNLS(SV40)-GFP (P62068, form named): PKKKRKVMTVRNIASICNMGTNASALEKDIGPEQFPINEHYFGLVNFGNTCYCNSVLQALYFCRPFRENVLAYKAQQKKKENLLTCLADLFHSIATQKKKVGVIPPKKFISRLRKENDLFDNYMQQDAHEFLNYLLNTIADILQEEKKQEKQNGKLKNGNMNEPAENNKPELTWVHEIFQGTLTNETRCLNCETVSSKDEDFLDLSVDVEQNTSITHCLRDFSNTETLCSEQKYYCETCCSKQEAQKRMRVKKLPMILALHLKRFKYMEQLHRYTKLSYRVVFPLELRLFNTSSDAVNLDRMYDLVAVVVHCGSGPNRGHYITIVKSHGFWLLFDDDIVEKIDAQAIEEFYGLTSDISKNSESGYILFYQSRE
# UniProt Q8TAF3: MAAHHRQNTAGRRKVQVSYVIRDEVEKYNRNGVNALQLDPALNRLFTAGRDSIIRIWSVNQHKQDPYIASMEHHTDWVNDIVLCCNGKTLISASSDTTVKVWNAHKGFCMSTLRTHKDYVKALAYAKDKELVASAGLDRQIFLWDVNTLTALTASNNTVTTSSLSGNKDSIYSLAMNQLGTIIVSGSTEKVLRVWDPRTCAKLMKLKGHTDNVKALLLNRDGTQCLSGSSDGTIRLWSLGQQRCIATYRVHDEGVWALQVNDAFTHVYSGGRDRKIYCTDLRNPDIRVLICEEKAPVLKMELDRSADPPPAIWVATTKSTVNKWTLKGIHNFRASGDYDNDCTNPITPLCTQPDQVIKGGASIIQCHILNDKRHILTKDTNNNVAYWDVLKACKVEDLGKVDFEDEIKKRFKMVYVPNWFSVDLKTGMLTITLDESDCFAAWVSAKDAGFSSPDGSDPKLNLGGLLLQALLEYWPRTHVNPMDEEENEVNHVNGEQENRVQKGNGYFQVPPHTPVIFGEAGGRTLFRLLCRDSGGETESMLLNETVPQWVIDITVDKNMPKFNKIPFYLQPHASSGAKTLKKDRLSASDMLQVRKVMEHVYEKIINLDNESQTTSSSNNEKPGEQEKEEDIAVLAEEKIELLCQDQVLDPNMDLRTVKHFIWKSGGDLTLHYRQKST
# Where a chain is given by its changes, count along the chain named. No constants are given. Whether binding was seen depends on the method and setting. In cells and extracts the contact can be indirect. Some results given as binding are weak or reduced against the parent protein; the word gives no strength. For some of these results: Sequences can lack the tags named with a protein.
# Tests used:
# Assay in all cases: co-IP; lysates of co-transfected 293T cells; GFP- or YFP-fusion proteins precipitated with Magnetic GFP-Trap beads; Xpress-UAF1 detected by anti-Xpress immunoblot
# [1] = molecular target: T1, GFP-USP1 wild type (human) (UniProt O94782)
# T1 sequence: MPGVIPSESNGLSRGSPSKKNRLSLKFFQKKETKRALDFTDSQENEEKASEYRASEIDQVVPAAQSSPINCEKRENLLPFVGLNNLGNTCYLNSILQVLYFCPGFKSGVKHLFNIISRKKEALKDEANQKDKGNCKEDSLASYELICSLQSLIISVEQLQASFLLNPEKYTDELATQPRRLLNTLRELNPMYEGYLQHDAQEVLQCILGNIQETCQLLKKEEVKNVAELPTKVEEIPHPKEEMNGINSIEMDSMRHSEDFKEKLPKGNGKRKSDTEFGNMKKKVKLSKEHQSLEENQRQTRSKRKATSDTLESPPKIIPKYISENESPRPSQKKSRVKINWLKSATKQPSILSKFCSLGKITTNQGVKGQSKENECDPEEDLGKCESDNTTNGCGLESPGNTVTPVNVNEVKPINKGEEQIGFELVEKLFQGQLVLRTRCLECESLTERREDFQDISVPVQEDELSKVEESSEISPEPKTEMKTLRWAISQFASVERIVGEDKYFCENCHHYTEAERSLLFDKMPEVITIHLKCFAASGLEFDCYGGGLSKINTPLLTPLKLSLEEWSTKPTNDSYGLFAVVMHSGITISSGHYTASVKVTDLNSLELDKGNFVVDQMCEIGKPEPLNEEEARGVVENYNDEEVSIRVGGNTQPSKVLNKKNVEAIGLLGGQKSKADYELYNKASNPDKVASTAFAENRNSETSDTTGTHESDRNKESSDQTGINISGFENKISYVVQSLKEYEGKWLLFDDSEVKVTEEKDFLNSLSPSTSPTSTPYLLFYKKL
# [2] = molecular target: USP46 amino-terminal fragment (1–164) in pNLS(SV40)-GFP (Simian virus 40 | not stated) (UniProt P62068)
# [3] = molecular target: USP46 central fragment (165–259) in pNLS(SV40)-GFP (Simian virus 40 | not stated) (UniProt P62068)
# [4] = molecular target: USP46 carboxy-terminal fragment (243–366) in pNLS(SV40)-GFP (Simian virus 40 | not stated) (UniProt P62068)
# [5] = molecular target: full length USP46 in pNLS(SV40)-GFP (Simian virus 40 | not stated) (UniProt P62068)
# GFP-USP1^S313D (human) = molecular target: T2, GFP-USP1^S313D (human) (UniProt O94782)
# T2 sequence: T1 sequence with S313D
# GFP-USP1^S313A (human) = molecular target: T3, GFP-USP1^S313A (human) (UniProt O94782)
# T3 sequence: T1 sequence with S313A
substance,measurement,setting,value
Xpress-UAF1 (from UniProt Q8TAF3 1-677),binding,[1],binds
same,binding,[2],no binding
same,binding,[3],binds
same,binding,[4],no binding
same,binding,[5],binds
same,binding,GFP-USP1^S313D (human),binds
same,binding,GFP-USP1^S313A (human),binds
